# Where “and” joins values, the source holds several entries; their conditions need not be identical. Equal values may be shown once. About 9,900 (2.8%) of roughly 350,000 compounds were called active. Inconclusive means that the source gave no clear call. Such entries were picked first, then a sample of the others. Calls come from the whole dose curve; as a rule, active = well fitted activation curve with a large enough effect; inconclusive = small, poorly fitted or top-dose-only effect; inactive = no such curve, though single readings can be large or run the other way. Potencies of inconclusive entries are doubtful fits and often do not repeat.
# Assay: A quantitative high throughput screen for small molecules that induce DNA re-replication in MCF 10a normal breast cells. For activity, positive = re-replication: % of control where 0% means no effect. Note: nearly all actives have a fitted effect of over 50% in size.
# Details: MCF 10A DNA re-replication, Hoechst nuclear intensity, 48 h; activity, positive = re-replication: at 46.1 µM (top of the series)
# Potency is the fitted concentration of half-maximal effect; tags give direction and shape of the fitted curve.
Structure (SMILES),"activity, positive = re-replication",Potency
O=C(NC1CCCC1)c1cc2nc(-c3ccco3)cc(C(F)(F)F)n2n1,inactive: 0.924%,–
Cc1cc(OCCCCN2C(=O)NC(C)(C)C2=O)cc(C)c1Cl,–,"inconclusive: 18.4 µM [activator, partial curve, poor fit]"
c1ccc(Sc2ncnc3c2oc2ccccc23)cc1,–,"inconclusive: 29.1 µM [activator, single point]"
Brc1cnc(N2CCOCC2)nc1N1CCCCC1,–,"inconclusive: 32.6 µM [activator, partial curve, poor fit]"
Cn1c(=O)n(C)c2cc([N+](=O)[O-])c(N3CCN(S(C)(=O)=O)CC3)cc21,inactive: 3.12%,–
COc1ccc2c(c1OC)C(=O)NC(C)=C(C(=O)OC(C)(C)C)C2O (configuration not stated),inactive: -10.7%,–
OCCCNc1cc(-c2ccnc(Nc3cccc(Cl)c3)n2)ccn1,–,"inconclusive: 14.6 µM [activator, partial curve, poor fit]"
O=S(=O)(NC1CC(NS(=O)(=O)OCC(Cl)(Cl)Cl)C2CCCCC12)OCC(Cl)(Cl)Cl (configuration not stated),–,"inconclusive: 29.1 µM [activator, single point]"
CCCCCCCSc1nsc(N)n1,–,"inconclusive: 23.1 µM [activator, single point]"
Cc1ccc(-c2nnc(N3CC(C)OC(C)C3)c3ccccc23)cc1 (configuration not stated),inactive: -2.56%,–
O=Cc1cc(Cl)ccc1OCCN1CCC(Cc2ccccc2)CC1,–,"inconclusive: 16.4 µM [activator, partial curve, poor fit]"
O=C(c1ccccc1NS(=O)(=O)c1ccc2c(c1)OCCO2)N1CCOCC1,–,active: 6.51 µM
COc1ccccc1N(CC(O)CN1C(C)CCCC1C)S(=O)(=O)c1ccccc1 (configuration not stated),inactive: -5.33%,–
CNC(=S)N1N=C(c2ccc(OC)cc2)CC1c1ccc(N(C)C)cc1 (configuration not stated),–,"inconclusive: 32.6 µM [activator, partial curve, poor fit]"
Cc1cccc(N(Cc2cc(=O)[nH]c3ccccc23)C(=O)CCl)c1,–,"inconclusive: 29.1 µM [activator, single point]"
CCC(Sc1ccccn1)C(=O)Nc1nnc(C)s1 (configuration not stated),–,"inconclusive: 12.6 µM [activator, partial curve]"
Cc1c[n+]([O-])cc(C)c1[N+](=O)[O-],inactive: 0.925%,–
Nc1c(C(=O)N/N=C/c2ccc(F)cc2)oc2nc(-c3ccccc3)cc(-c3ccco3)c12,–,active: 20.6 µM
C=CCn1c(=O)c(C(=O)Nc2ccccc2C(=O)OCC)c(O)c2ccccc21,–,"inconclusive: 20.6 µM [activator, single point]"
CCC(=O)Nc1ccnc(-c2cccnc2)n1,inactive: 0.569%,–
Cc1nn2c3c(cnc2c1-c1ccc(Cl)cc1)C(=O)CC(c1ccco1)C3 (configuration not stated),inactive: 4.68%,–
Cn1c(=O)c2[nH]c(Cc3ccsc3)nc2n(C)c1=O,inactive: 1.81%,–
N#C/C(=C\c1ccc(N2CCOCC2)o1)c1nc2ccccc2[nH]1,inactive: 3.24%,–

Structure (SMILES),"activity, positive = re-replication",Potency
CCN(CC)c1ccc(S(=O)(=O)N2CCOCC2)cc1NC(=O)CNCc1cccc(Cl)c1,inactive: 3.53%,–
Nc1ccc(-n2c(N)c(C(=O)NCc3ccc4c(c3)OCO4)c3nc4ccccc4nc32)cc1,–,active: 16.4 µM
COc1ccc(CN=Cc2[nH]c3ccc(Br)c(Cl)c3c2O)cc1,–,"inconclusive: 29.1 µM [activator, single point]"
O=C(COC(=O)c1ccc(Br)o1)Nc1ccc2c(c1)OCCO2,–,"inconclusive: 9.2 µM [activator, partial curve, poor fit]"
O=CNc1ccc2c(c1)Cc1cc([N+](=O)[O-])ccc1-2,–,"inconclusive: 25.9 µM [activator, single point]"
O=c1[nH]c(C2CCN(S(=O)(=O)c3ccccc3C(F)(F)F)CC2)nc2c1nnn2Cc1cccc(F)c1,–,"inconclusive: 23.1 µM [activator, single point]"
COc1ccc(CCNC2CC(=O)N(CCc3ccc(OC)c(OC)c3)C2=O)cc1OC (configuration not stated),inactive: -2.14%,–
COc1ccc(NS(=O)(=O)c2ccc(N3CCN(CCO)CC3)c([N+](=O)[O-])c2)cc1,–,"inconclusive: 14.6 µM [activator, partial curve, poor fit]"
Cc1ccc(-c2nn(CC(=O)NCc3cc(-c4nn(C)c(=O)c5ccccc45)ccc3C)c(=O)c3ccccc23)cc1,–,active: 9.2 µM
Cc1ccc(S(=O)(=O)N2CCC(=O)N(C(COCc3ccc(Cl)c(Cl)c3)Cc3ccccc3)CC2)cc1 (configuration not stated),–,active: 23.1 µM
O=C(COc1ccccc1Cl)NNC(=O)Cn1[nH]c(=O)c2ccccc2c1=O,–,"inconclusive: 0.0041 µM [activator, full curve, poor fit]"
Cc1nc2ccccc2n1Cc1ccc(Cl)cc1,–,"inconclusive: 11.9 µM [activator, single point] and inconclusive: 5.8 nM [activator, full curve, poor fit]"
O=C(/C=C/c1c(F)cccc1Cl)Nc1ccncc1,–,"inconclusive: 29.1 µM [activator, single point]"
COc1ccc(CNC(=O)c2c(O)c3cccc4c3n(c2=O)CCC4)cc1,inactive: -0.447%,–
Cc1ccc(/C=C/C(=O)N2CCN(c3ncccn3)CC2)o1,–,"inconclusive: 23.1 µM [activator, single point]"
CCC1Sc2ccccc2N(CC(=O)NCCC2=CCCCC2)C1=O (configuration not stated),–,"inconclusive: 9.2 µM [activator, partial curve, poor fit]"
C=CCOC(=O)N1CCC2CC1c1cc(-c3cccc(C)c3)ccc12 (configuration not stated),–,"inconclusive: 20.6 µM [activator, partial curve, poor fit]"
CCC(C)Sc1ccc(-c2nc3cc(C)ccn3c2NC2CCCCC2)cc1 (configuration not stated),–,"inconclusive: 29.1 µM [activator, single point]"
CCOC(=O)N1CCN(S(=O)(=O)c2ccc(C(=O)Nc3nnc(C4CC4)o3)cc2)CC1,–,"inconclusive: 20.6 µM [activator, single point]"
CCN(CC)c1ccc(NC(=O)c2ccc(S(=O)(=O)N3CCOCC3)cc2)cc1,–,"inconclusive: 16.4 µM [activator, single point]"
CC1Cc2cc(S(=O)(=O)N3CCC(C(=O)NCc4ccco4)CC3)ccc2N1C(=O)C1CCC1 (configuration not stated),–,"inconclusive: 29.1 µM [activator, single point]"
CCc1ccc(O)c(N=Cc2ccccc2O)c1,–,"inconclusive: 29.1 µM [activator, single point]"
COc1cccc(C2C(C(=O)Nc3nc4ccccc4s3)=C(C)NC3=C2C(=O)CC(C)(C)C3)c1OC (configuration not stated),–,"inconclusive: 0.58 µM [activator, full curve, poor fit]"

Structure (SMILES),"activity, positive = re-replication",Potency
COc1ccc2nc(NC(=O)c3ccc(NC(=O)C4CCCO4)cc3)sc2c1 (configuration not stated),–,active: 20.6 µM
Cc1ccc(-n2nnnc2SCc2ccc(C(=O)O)cc2)cc1C,–,"inconclusive: 6.51 µM [activator, single point]"
O=C1NC2(Nc3ccccc31)C(=O)Nc1ccc(Br)cc12 (configuration not stated),–,"inconclusive: 5.8 µM [activator, partial curve, poor fit]"
COc1cccc(-c2cc3nc(-c4ccccc4)cc(=O)n3[nH]2)c1,–,"inconclusive: 0.58 µM [activator, full curve, poor fit]"
CN(C)c1cc[n+](CC(=O)Nc2ccc(Oc3ccccc3)cc2)cc1,–,"inconclusive: 13 µM [activator, single point]"
O=C(CO/N=C/c1ccc(Cl)cc1Cl)NNC(=O)c1cccc(Cl)c1,–,"inconclusive: 18.4 µM [activator, single point]"
COc1ccccc1OCCn1ccnc1,–,"inconclusive: 23.1 µM [activator, single point]"
COc1ccccc1C(CNC(=O)c1cccc(S(=O)(=O)N2c3ccccc3CC2C)c1)N(C)C (configuration not stated),–,"inconclusive: 16.4 µM [activator, partial curve, poor fit]"
O=C(Nc1ccccc1)/C(=C/c1cccc(Br)c1)NC(=O)c1ccco1,–,"inconclusive: 25.9 µM [activator, partial curve, poor fit]"
CC1CC(C)CN(C(=O)Nc2ccccc2F)C1 (configuration not stated),inactive: 0.497%,–
CN(C)CCOc1ccc(-c2c(-c3ccccc3)sc3ccccc23)cc1,–,"inconclusive: 5.17 µM [activator, partial curve, poor fit]"
O=C1N/C(=C\c2ccc(N3CCOCC3)c(F)c2)C(=O)N1Cc1ccccc1,–,"inconclusive: 3.66 µM [activator, full curve, poor fit]"
C=CCNC(=O)C(=O)Nc1cc2c3c(c1)CCC(=O)N3CCC2,–,"inconclusive: 18.4 µM [activator, single point]"
Cc1cc(Nc2ccc([N+](=O)[O-])cc2)c2ccccc2n1,–,active: 2.59 µM
CCc1nc(NCCN2CCOCC2)c2oc3ccccc3c2n1,inactive: -0.568%,–
CCOC(=O)C1=C(CN2c3ccccc3CC2C)NC(=O)NC1c1ccccc1 (configuration not stated),–,"inconclusive: 11.6 µM [activator, partial curve, poor fit]"
CC(C)c1ccc(NC2CCCN(C(=O)c3ccoc3)C2)cc1 (configuration not stated),inactive: -10.5%,–
CCCC(O)(c1ccc(CC)cc1)C(CN1CCOCC1)c1ccccc1 (configuration not stated),–,"inconclusive: 9.2 µM [activator, partial curve, poor fit]"
CCCCCn1c(N(C)Cc2ccccc2)nc2c1c(=O)[nH]c(=O)n2C,inactive: 0.933%,–
CC(C)OCCCNC(=O)C1CCC(=O)N1C(C)C (configuration not stated),–,"inconclusive: 29.1 µM [activator, single point]"
N#C/C(=C\c1cccc(NC(=O)c2ccccc2Cl)c1)C(=O)NCCc1ccccc1,–,"inconclusive: 29.1 µM [activator, single point]"
